The list shows a part of the results. Shown are side measurements of this screen, not its main read-out; they come without a call. Most of these compounds were active or inconclusive in the main read-out, so they are no random draw.
Assay: beta-lactam sensitization of Mtb H37Rv, H37Rv (AID 434955);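 note: growth measured after seven days incubation then overnight dye step; 0% = bacteria only wells and 100% = bacteria with antibiotic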
Details: M. tuberculosis H37Rv growth with meropenem, percent inhibition; measured here: primary screen without meropenem; at 25 µM

Row | Structure (SMILES) | inhibition
1 | CN1C(=O)C(Cc2cnc[nH]2)NC1=S (centres undefined) | -2.02%
2 | Cc1ccc(Cn2ccc(NC(=O)c3cc(-c4ccco4)on3)n2)cc1 | -2.45%
3 | Cc1cc(C)cc(NC(=S)NN)c1 | 11.2%
4 | COc1cccc(-c2ccc(NC(=O)C3CCCN(Cc4cnc(C)s4)C3)cc2)c1 (centres undefined) | 66.4%
5 | Cc1onc(-c2ccccc2)c1C(=O)NNC(=S)NC(=O)/C=C/c1ccccc1 | -7.55%
6 | COCC(=O)N1CCC(Oc2ccc(C(=O)N(C)C(C)c3ccon3)cc2)CC1 (centres undefined) | 0.05%
7 | O=c1c2ccccc2nc(-c2ccco2)n1CCc1ccc(O)cc1 | 5.86%
8 | COc1ccc(-c2ncccc2OC(=O)C23CC4CC(CC(C4)C2)C3)cc1 | 23%
9 | Cc1nc(NC(=O)c2cc3ccccc3o2)ccc1Br | -1.41%
10 | CCOC(=O)C1CCN(Cc2oc(CO)cc(=O)c2O)CC1 | 6.71%
11 | CC(C)C[C@H](NC(=O)OC(C)(C)C)C(=O)N1CCC(C(=O)N[C@@H](Cc2c[nH]c3ccccc23)C(=O)O)CC1 | -5.71%
12 | CCn1c(=O)cc(OCC(=O)N(C)C2CCCCC2)c2ccccc21 | -2.51%
13 | Cc1cccc(NC(=O)c2cc3ccccc3c(=O)o2)n1 | 5.76%
14 | CCc1nnc(NC(=O)c2ccc3nc(CC)c(CC)nc3c2)s1 | 10.6%
15 | Cc1cc(C(=O)N2CCCC(CO)(Cc3ccc(F)cc3)C2)c(C)o1 (centres undefined) | 1.96%
16 | Cc1nc(-c2ccccc2)sc1C(=O)Nc1ccc(S(N)(=O)=O)cc1 | 2.75%
17 | Cc1[nH]n(-c2ccccc2)c(=O)c1/C=N/NC(=O)c1ccoc1C | 7.49%
18 | CCN(C(=O)C1CCCN1S(=O)(=O)c1ccc2c(c1)n(C)c(=O)c(=O)n2C)c1ccccc1 (centres undefined) | -4.69%
19 | O=C(COC(=O)c1cccc(NC(=O)c2ccco2)c1)c1ccc(Br)cc1 | -6.74%
20 | COc1c(F)c(F)c(C(=O)Nc2c(C)cc(Br)cc2C)c(F)c1F | 31.3%
21 | C=CCn1cc(C(=O)NCCCOC)c(=O)c2cc(S(=O)(=O)N(CC)CC)ccc21 | -3.83%
22 | CCOc1ccc(/C=C2\C(=O)c3ccccc3OC2c2ccccc2)cc1 (centres undefined) | 6.67%

Row | Structure (SMILES) | inhibition
23 | C=CCn1c(SCc2cccc(F)c2)nc2cc(C(=O)N3CCC(C(N)=O)CC3)ccc2c1=O | 7.03%
24 | CN(C)S(=O)(=O)c1ccc(C(=O)Nc2cccc(C(=O)N3CCOCC3)c2)cc1 | -14.1%
25 | CC(C)c1nc(CNC(=O)C2CCC(=O)N(CCc3ccc(Cl)cc3)C2)no1 (centres undefined) | -9.06%
26 | COc1ccccc1OCC(=O)NCC1CCCN(Cc2cnn(C)c2C)C1 (centres undefined) | -2.13%
27 | COC1CCN(C(=O)C2CCC(=O)N(CCc3cccc(F)c3)C2)CC1 (centres undefined) | -6.29%
28 | COC(=O)c1ccc(NC(=O)CCN2C(=O)C3C4CCC(C4)C3C2=O)cc1 (centres undefined) | -1.98%
29 | COc1ccc(-c2cc(C(N)=O)nc(N3CCCCCC3)n2)cc1 | 42%
30 | CN(c1ccc(OCC(=O)OCC(=O)c2c(N)n(C)c(=O)n(C)c2=O)cc1)S(=O)(=O)c1ccc2ccccc2c1 | 2.94%
31 | CCOC(=O)N1CCN(C(=O)CCN2C(=O)/C(=C\c3ccccc3OC)SC2=S)CC1 | -5.52%
32 | CN=C(SCc1ccccc1)c1c(O)n(C)c(=O)n(C)c1=O | -1.21%
33 | O=C(Nc1ccc(C(=O)N2CCOCC2)cc1)c1cccc(Br)c1 | -2.43%
34 | CC(=O)OCC(=O)[C@@]1(O)CC[C@H]2[C@@H]3CCC4=CC(=O)C=C[C@]4(C)[C@H]3C(=O)C[C@@]21C | 2.07%
35 | O=C(NCc1ccco1)C12CC3CC(C1)CC(C(=O)NCc1ccco1)(C3)C2 | -12.8%
36 | COC(=O)C1CCN(S(=O)(=O)c2ccc(NC(C)=O)cc2)CC1 | 4.26%
37 | COc1ccc(CCN2CC(C(=O)N3CCC(OC)CC3)CCC2=O)cc1 (centres undefined) | -1.93%
38 | C=CCOn1c(=O)c(-c2ccc(Br)cc2)[n+]([O-])c2ccccc21 | 5.53%
39 | O=C(O)C1CC(=O)N(c2ccc(OCc3ccccc3Cl)cc2)C1 (centres undefined) | 35.8%
40 | O=C(Nc1ccncc1)c1cn(-c2ccccc2)nc1-c1cccs1 | -0.41%
41 | Cc1ccc(S(=O)(=O)Oc2ccc(/C=N/NC(=O)c3ccncc3)cc2)cc1 | 95.1%
42 | Cc1n[nH]c(C)c1CCN(C)C(=O)C1CCC(=O)N(CC2CCCCC2)C1 (centres undefined) | 4.1%
43 | COc1ccc(NC(=O)CSc2nc3sc(C)c(C)c3c(=O)n2Cc2ccco2)cc1 | 1.68%
44 | Cc1cc(NC(=O)/C=C/c2ccccc2Cl)n(-c2nc3ccccc3[nH]2)n1 | 39.2%

Row | Structure (SMILES) | inhibition
45 | Cc1ccc(-c2nn3c(C)nnc3s2)cc1NC(=O)c1ccc(Br)o1 | 0.16%
46 | COc1cccc(/C=C2\SC(=O)N(CC(=O)NC3C=CS(=O)(=O)C3)C2=O)c1 (centres undefined) | 2.52%
47 | O=C(CCC1CCN(C(=O)c2ccccc2Cl)CC1)NCc1ccc(F)cc1 | 4.2%
48 | Cc1ccc(N(Cc2cc(=O)[nH]c3ccccc23)C(=O)CCl)cc1 | 80.7%
49 | O=C(O)CSc1c2c(nc3cc(C(=O)Nc4cccc(C(F)(F)F)c4)ccc13)CCC2 | 1.06%
50 | CC1=C(C(=O)OC(C)C)C(c2cccs2)N2C(=O)CCSC2=N1 (centres undefined) | -10.4%
51 | COc1cccc(OC)c1C(=O)Nc1ccc(C(=O)NCc2ccccc2)cc1 | 1.01%
52 | CC(NC(=O)CSc1nc2ccccc2c(=O)[nH]1)c1ccccc1 (centres undefined) | 30.5%
53 | O=C1CC(=O)Nc2cc(S(=O)(=O)N3CCOc4ccc(Cl)cc43)ccc2N1 | -5.19%
54 | O=C(NCc1ccccc1OC(F)(F)F)C1CCC(=O)N(Cc2cccc(F)c2)C1 (centres undefined) | -2.01%
55 | COc1ccc(NC(=O)CCc2nnc3ccc(NCc4ccc5c(c4)OCO5)nn23)cc1 | 3.5%
56 | CCn1cc(C(=O)O)c(=O)c2cc(F)c(N3CCN(C(=S)NC(=O)c4ccc(Br)cc4)CC3)cc21 | -1.52%
57 | COc1ccc(-c2ccc(=O)n(CC(=O)Nc3cccc(O)c3)n2)cc1OC | 0.29%
58 | COc1ccc(N2CC(C(=O)Nc3ccc4c(c3)OCO4)CC2=O)cc1 (centres undefined) | -0.62%
59 | CCOc1ccc(NC(N)=O)cc1OCC | -10.1%
60 | CC1CC(C)(C)n2c(O)c(N=NC(N)=S)c3cccc1c32 (centres undefined) | -0.27%
61 | O=C(CC1C(=O)NCCN1Cc1cccc(F)c1)NCCCN1CCCC1=O (centres undefined) | -1.68%
62 | CC(C)c1ccc(C(C)NCCS(=O)(=O)c2ccc(Cl)cc2)cc1 (centres undefined) | 72.6%
63 | CCn1cc(C(=O)NCCCN2CCC(C)CC2)c(=O)c2cc(S(=O)(=O)N3CCCC3)ccc21 | -8.31%
64 | C/C(=N\NC(=O)c1cc2c(s1)CCC(C)C2)c1ccc[nH]1 (centres undefined) | 60.8%

Source: PubChem BioAssay AID434955 (Southern Research Specialized Biocontainment Screening …, 2010)
